Measured values published in the BET-seq Pho4 binding data (Le et al. 2018).
This is one part of the list. These are noisy estimates, calculated here from bound and input reads.

These sequences were tested against T1, Pho4 (S. cerevisiae) (UniProt P07270) (assay: relative binding free energy (BET-seq); higher = weaker binding). Settings: reference: library average.
T1 sequence: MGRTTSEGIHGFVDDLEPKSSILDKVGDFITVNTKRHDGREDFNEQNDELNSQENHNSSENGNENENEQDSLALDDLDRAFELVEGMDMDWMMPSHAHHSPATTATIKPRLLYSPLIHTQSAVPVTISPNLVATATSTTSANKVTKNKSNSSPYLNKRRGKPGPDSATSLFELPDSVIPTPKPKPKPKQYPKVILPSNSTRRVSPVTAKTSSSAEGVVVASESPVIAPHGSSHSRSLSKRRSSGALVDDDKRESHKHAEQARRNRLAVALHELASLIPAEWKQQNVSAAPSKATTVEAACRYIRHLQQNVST

Sequence | relative binding free energy
GGTTGCACGTGCATGC | 0.03 kcal/mol
AGGTACACGTGTGTTT | 0.12 kcal/mol
GTGTTCACGTGATGCT | 0.28 kcal/mol
TGGTACACGTGGGCAA | -0.15 kcal/mol
GATGGCACGTGCTGTA | -0.12 kcal/mol
GCGCTCACGTGGGGAG | 0.12 kcal/mol
CATGGCACGTGAAAGG | 0.07 kcal/mol
GAGATCACGTGTTGTT | 0.29 kcal/mol
AGGTCCACGTGATGTT | -0.02 kcal/mol
CCGGGCACGTGGATTG | -0.06 kcal/mol
TTGGGCACGTGAATCG | 0.25 kcal/mol
GTTGGCACGTGGGTTC | -0.15 kcal/mol
GTGTACACGTGTAAGA | 0.24 kcal/mol
TTGTTCACGTGCTTGC | 0.33 kcal/mol
TGGGTCACGTGGTAAA | 0.08 kcal/mol
TATTACACGTGGGGAT | 0.04 kcal/mol
TTTTACACGTGATACG | 0.14 kcal/mol
GGTATCACGTGTGCTA | 0.26 kcal/mol
CGTATCACGTGTGATG | 0.19 kcal/mol
TTTCACACGTGTTTTG | 0.15 kcal/mol
TTGCGCACGTGTTTCT | -0.1 kcal/mol
AGTTGCACGTGTCGTG | 0 kcal/mol
GGTTACACGTGACGTG | 0.16 kcal/mol
AGTGTCACGTGCGAGT | -0.09 kcal/mol
CAGAGCACGTGCGGGT | -0.15 kcal/mol
GAGGGCACGTGGGGTT | -0.07 kcal/mol

Sequence | relative binding free energy
GAAGTCACGTGTAGCG | 0.28 kcal/mol
GGCGTCACGTGGTGAT | 0.21 kcal/mol
AGAAACACGTGTAGTG | 0.06 kcal/mol
CGATTCACGTGGAGTT | 0.2 kcal/mol
GTAAACACGTGGTATG | -0.01 kcal/mol
TTGAACACGTGGGCAG | -0.1 kcal/mol
TGCAGCACGTGGTGGT | -0.08 kcal/mol
TGTGGCACGTGTTGAG | -0.15 kcal/mol
TGTTTCACGTGACTAT | 0.28 kcal/mol
GTGTACACGTGGGTGC | -0.07 kcal/mol
TAGATCACGTGTTTTC | 0.18 kcal/mol
AGTTTCACGTGCCGGT | 0.22 kcal/mol
TTTGTCACGTGTTGAG | 0.04 kcal/mol
TTATTCACGTGTTGGG | 0.24 kcal/mol
CTAGTCACGTGTTAGA | 0.16 kcal/mol
GGTCTCACGTGGTTGG | 0.26 kcal/mol
CTTTTCACGTGGGGCG | 0.1 kcal/mol
TCATTCACGTGGGGCT | 0.07 kcal/mol
GTCCGCACGTGCGTGG | -0.08 kcal/mol
TCGTGCACGTGGAAGT | 0.03 kcal/mol
AGAACCACGTGTGGTG | 0.05 kcal/mol
TCTTGCACGTGGTGCA | -0.07 kcal/mol
AGGGGCACGTGGTCAA | -0.15 kcal/mol
TCGGTCACGTGGGCCG | -0.05 kcal/mol
AACGGCACGTGGGGTG | -0.28 kcal/mol
AGGGTCACGTGCACGT | 0.04 kcal/mol

Sequence | relative binding free energy
GTGTGCACGTGAATCT | 0.23 kcal/mol
GTGTCCACGTGTTAGG | 0.12 kcal/mol
GGTTACACGTGGTGTA | 0.07 kcal/mol
AGGATCACGTGGATGG | 0.11 kcal/mol
TTGTACACGTGCATTT | 0.18 kcal/mol
TGGTTCACGTGTCGGG | 0.31 kcal/mol
GGTGTCACGTGACGGT | 0.25 kcal/mol
TGGCACACGTGAGTAG | 0.3 kcal/mol
AGGGGCACGTGAGATG | 0.06 kcal/mol
ATTTTCACGTGGGTCG | 0.3 kcal/mol
GGTAGCACGTGGACTG | 0.03 kcal/mol
CGTTTCACGTGACTGT | 0.47 kcal/mol
TTGTGCACGTGTCCTG | -0.14 kcal/mol
TGGCACACGTGGGCTG | -0.08 kcal/mol
TCTTTCACGTGAGCGG | 0.42 kcal/mol
TGAGTCACGTGGCCTG | 0.02 kcal/mol
TAGTGCACGTGAAGAT | 0.14 kcal/mol
AGGTTCACGTGAGTGT | 0.35 kcal/mol
TAAATCACGTGTGGGT | 0.13 kcal/mol
TGGAGCACGTGAATTA | 0.23 kcal/mol
AGGCGCACGTGCAGTG | -0.18 kcal/mol
CTCTTCACGTGAGGGG | 0.25 kcal/mol
TGCGTCACGTGGTATC | 0.11 kcal/mol
ACGAGCACGTGCGTTG | 0.01 kcal/mol
GTGGACACGTGTGAAT | 0.06 kcal/mol
TATTTCACGTGTACTA | 0.26 kcal/mol

Sequence | relative binding free energy
GTGGGCACGTGATGGC | 0.09 kcal/mol
AGGTTCACGTGTGGTG | 0.29 kcal/mol
TGCTACACGTGTAAGG | 0.21 kcal/mol
TAACACACGTGGTGGT | -0.06 kcal/mol
ACGTCCACGTGTTGGG | 0.01 kcal/mol
GATGGCACGTGGGACT | -0.23 kcal/mol
TTCGTCACGTGGACGT | 0.1 kcal/mol
GAGTACACGTGTTTAG | 0.21 kcal/mol
TGATTCACGTGTTTGG | 0.28 kcal/mol
TTTGGCACGTGCGTGT | -0.23 kcal/mol
GGGAGCACGTGTGTGA | -0.01 kcal/mol
GGTACCACGTGAATGG | 0.39 kcal/mol
CTGTGCACGTGTTTAA | -0.03 kcal/mol
GTTGGCACGTGGAGGG | -0.06 kcal/mol
GGGTACACGTGATTAG | 0.34 kcal/mol
ATTTACACGTGTGGTC | 0.08 kcal/mol
GTGATCACGTGTCATG | 0.12 kcal/mol
TGGAGCACGTGGTTAG | -0.09 kcal/mol
TCGGTCACGTGTTAGA | 0.1 kcal/mol
TATTCCACGTGATTTG | 0.22 kcal/mol
TAAGGCACGTGATAGT | -0.09 kcal/mol
TTAGGCACGTGCTTGA | -0.25 kcal/mol
TGTGACACGTGATGTT | 0.09 kcal/mol
ATTTGCACGTGGTCCG | -0.08 kcal/mol
TACGACACGTGTGGTA | 0.14 kcal/mol
TGTGGCACGTGGCGGT | -0.12 kcal/mol

Sequence | relative binding free energy
GTGGTCACGTGGTCGG | 0.1 kcal/mol
GTTGTCACGTGAGCGG | 0.21 kcal/mol
GGGATCACGTGTAGAT | 0.24 kcal/mol
TTTTTCACGTGGGCGG | 0.12 kcal/mol
ATTTTCACGTGGCGGA | 0.41 kcal/mol
GTGAACACGTGTTATT | 0.05 kcal/mol
TTGCTCACGTGGTTTA | 0.14 kcal/mol
CGGGTCACGTGCAAGG | 0.04 kcal/mol
CTGTGCACGTGCGGTT | -0.16 kcal/mol
TGGAACACGTGGTTGC | -0.03 kcal/mol
TTGGTCACGTGTGCTT | 0.03 kcal/mol
ATGAACACGTGGGAGT | -0.06 kcal/mol
TATAACACGTGGTTGT | 0 kcal/mol
CGTAGCACGTGTAAGG | -0.03 kcal/mol
GAATTCACGTGGCGTA | 0.33 kcal/mol
TGGGGCACGTGCTTTT | -0.19 kcal/mol
ATGGTCACGTGAATAT | 0.29 kcal/mol
GGGATCACGTGGTTCG | 0.14 kcal/mol
GTTTTCACGTGGTATC | 0.36 kcal/mol
CGAAACACGTGTGGGT | 0.02 kcal/mol
GTCGGCACGTGGATGT | -0.08 kcal/mol
GTACACACGTGTTGGG | 0.09 kcal/mol
GGCTGCACGTGGTTAA | -0.01 kcal/mol
TCTGTCACGTGGGATA | -0.12 kcal/mol
AAAATCACGTGTTTGT | 0.21 kcal/mol
ATATCCACGTGTAGGG | -0.01 kcal/mol

Sequence | relative binding free energy
CGATTCACGTGTGGAT | 0.33 kcal/mol
ATGCGCACGTGAGGTT | 0.17 kcal/mol
CTTTGCACGTGAGGTG | 0.13 kcal/mol
AGATCCACGTGTGGTT | 0.11 kcal/mol
ATGTTCACGTGGGTAG | 0.21 kcal/mol
TACCGCACGTGTGTGG | 0.08 kcal/mol
GTCGGCACGTGTTTTG | 0.17 kcal/mol
TGTTGCACGTGTAAGT | 0.12 kcal/mol
ACGGACACGTGGGAGG | -0.15 kcal/mol
GTTGGCACGTGTATGC | -0.04 kcal/mol
TATTTCACGTGTGGGA | 0.38 kcal/mol
TTGATCACGTGTACGT | 0.23 kcal/mol
CTGGTCACGTGTTAGT | 0.14 kcal/mol
TTGCGCACGTGGGACG | -0.14 kcal/mol
TTTTTCACGTGCTATA | 0.23 kcal/mol
GTGTGCACGTGATGTC | 0.16 kcal/mol
TCGGTCACGTGGGGCA | -0.11 kcal/mol
GTGAACACGTGGTGAG | -0.06 kcal/mol
GTTATCACGTGTGTCG | 0.16 kcal/mol
TATTGCACGTGAAGTT | 0.12 kcal/mol
CATGTCACGTGGGAAG | 0.12 kcal/mol
TTAGGCACGTGATTCG | -0.05 kcal/mol
TGGGACACGTGTTGTC | 0.1 kcal/mol
CGGTGCACGTGGCGAG | -0.06 kcal/mol
TCAGGCACGTGGGCAG | -0.3 kcal/mol
CTTATCACGTGGTGAG | 0.15 kcal/mol

Sequence | relative binding free energy
TAAGGCACGTGTATTA | -0.16 kcal/mol
GGGGACACGTGCGGCA | -0.01 kcal/mol
AGTCTCACGTGGGATG | 0.1 kcal/mol
GGAGCCACGTGCGGGG | -0.17 kcal/mol
GTATACACGTGACGGT | 0.24 kcal/mol
TTGTGCACGTGGCGTG | -0.1 kcal/mol
TTGTACACGTGGGGGG | 0 kcal/mol
ATTTTCACGTGGGTGT | 0.14 kcal/mol
TGCGTCACGTGCGGAT | 0.03 kcal/mol
CGATGCACGTGGTAGG | -0.03 kcal/mol
TGATTCACGTGAATTA | 0.39 kcal/mol
ACAGGCACGTGTGTGA | -0.09 kcal/mol
ATATGCACGTGTGTTG | -0.01 kcal/mol
GTGTTCACGTGTGAAA | 0.32 kcal/mol
TGCTGCACGTGATATT | 0.07 kcal/mol
TATAGCACGTGGTCGG | -0.25 kcal/mol
GTCAGCACGTGGAGAG | -0.01 kcal/mol
AGGTTCACGTGCAGAT | 0.2 kcal/mol
TCAATCACGTGTGGTG | 0.17 kcal/mol
AGTTACACGTGCTAGT | 0.11 kcal/mol
AATTGCACGTGTTTAA | 0.01 kcal/mol
CTTATCACGTGGCTGT | 0.04 kcal/mol
AAGATCACGTGAGGTT | 0.31 kcal/mol
TTTGTCACGTGTAGCA | 0.07 kcal/mol
TTGTCCACGTGGTTTC | 0.1 kcal/mol
ATGGTCACGTGGTTCG | 0 kcal/mol

Sequence | relative binding free energy
ATGCGCACGTGTGAGG | -0.04 kcal/mol
AAGCTCACGTGGTTTA | 0.3 kcal/mol
GAGTGCACGTGATGAA | 0.26 kcal/mol
CTGTTCACGTGGAGGT | 0.24 kcal/mol
GGTAGCACGTGGCGAA | 0 kcal/mol
TTGAGCACGTGTATCT | -0.09 kcal/mol
ATTTGCACGTGAGTGA | 0.14 kcal/mol
TGGTACACGTGGCGAG | 0.02 kcal/mol
AGTGGCACGTGCGGTT | -0.17 kcal/mol
GTGTACACGTGAGTGG | 0.23 kcal/mol
CTGGTCACGTGGCGGA | 0.16 kcal/mol
GCCTTCACGTGCGGGT | 0.34 kcal/mol
TTAGGCACGTGCCAGG | -0.14 kcal/mol
TATTTCACGTGTGTAC | 0.18 kcal/mol
CTCAACACGTGTTGGG | 0.19 kcal/mol
GGGGTCACGTGGGGAA | 0.11 kcal/mol
TTTTTCACGTGGTCTC | 0.16 kcal/mol
GATTTCACGTGAGAGG | 0.49 kcal/mol
AGTTTCACGTGTTCGT | 0.29 kcal/mol
TGGAGCACGTGTATGC | -0.1 kcal/mol
GAGTTCACGTGAGAGG | 0.55 kcal/mol
TTAGGCACGTGGCATG | -0.23 kcal/mol
GTGGCCACGTGTTGGT | 0.03 kcal/mol
TTTATCACGTGGATAT | 0.07 kcal/mol
GGATGCACGTGAGTAT | 0.03 kcal/mol
TGCTACACGTGGTATT | 0.04 kcal/mol

Sequence | relative binding free energy
TGAAACACGTGGGGAA | -0.05 kcal/mol
CGGGTCACGTGTAGAT | 0.36 kcal/mol
ATGTGCACGTGGTATC | -0.11 kcal/mol
CTTTGCACGTGGTGGT | -0.04 kcal/mol
GGGTGCACGTGGCAGA | -0.16 kcal/mol
GATGGCACGTGGGCTC | -0.07 kcal/mol
TACTTCACGTGTTGAG | 0.17 kcal/mol
TTAGGCACGTGCTGGA | -0.19 kcal/mol
GTTCGCACGTGCATGG | -0.02 kcal/mol
GGATACACGTGGTCTG | -0.13 kcal/mol
GGTGACACGTGGGTGC | -0.13 kcal/mol
AAGTGCACGTGGTCGA | -0.09 kcal/mol
AGTTTCACGTGTCGTG | 0.31 kcal/mol
TGGACCACGTGTGTGA | -0.03 kcal/mol
TTATACACGTGGTTGA | 0.06 kcal/mol
CGGAGCACGTGCGTGG | -0.13 kcal/mol
GGGTTCACGTGGAGGT | 0.33 kcal/mol
TGTTGCACGTGGCGGG | 0 kcal/mol
GTGCTCACGTGGTAGT | 0.2 kcal/mol
AATAACACGTGGGTAA | -0.17 kcal/mol
GGCCGCACGTGATGGT | 0.19 kcal/mol
TGTTTCACGTGGGCTC | 0.2 kcal/mol
